# Read counts are not given, so values of variants with three or more changes are uncertain.
# B1: LINE1-mini (parent)
# chain: GGCAGAGCUCAACACAGCGUGGCAAAGUGGCUGUGGCUAGACUGCC
# Variants of: B1
# Test: self-cleavage, relative activity (ratio to wild type); higher = more cleavage; in vitro, sequencing; the parent is a self-cleaving ribozyme
row,Variant,self-cleavage
1,A6C G7C G22C G29A G40C C45A,0.03
2,G5U U9A C10G U32G G44A,0.02
3,G5U U9C U20A G40C,0.03
4,G5U U9G C18G G22U C23A,0.05
5,A6G A11U G44C,0
6,A6C C10G G40C,0.01
7,G5U G30A U34G,0.03
8,A6C A24G C45A,0.09
9,A6C G7U U20G C45A,0.05
10,G5U G17A A25U,0.06
11,G5U C23G A41G,0.28
12,A6C C15G G21A A25U U32C G44C,0.02
13,A6C G7C C13U G22A C42U C45U,0.06
14,A6C U38G G40C C42G,0.02
15,A6C G30U C37A A39G,0.03
16,A6C A12C C37G,0.01
17,G5U C31A C37G G44C C46G,0.04
18,A6C G27C U34C G40U,0.24
19,G5U G7C C8A A12C G30C,0.06
20,G5U G22C A41U G44U,0.03
21,A6G A16U G19U G21U,0.02

row,Variant,self-cleavage
1,G5U G21C U38C G40U,0.03
2,A6G C8U C18U G22A U32G C46U,0.06
3,A6C C13A C15A U32C,0.04
4,A6C A11C G29U G36A G44C C46A,0
5,A6C C8G A16C G22A,0.02
6,G5U U20G G35C U43A,0.01
7,A6C A26U U28C C46A,0.04
8,G5U G40U C42A,0.07
9,A6C C10A G30C G44C,0.01
10,G5U U20A C23A,0.02
11,A6C G17U A39G,0.02
12,A6C C8A C31A G44U,0.18
13,G5U U9A G19A U20G G35C,0.08
14,A6C U9A G17C C31A C37G G40A C46G,0.02
15,G5U G19A A25U U32C G33U C46U,0.12
16,A6C G17C U43A,0.14
17,A6C A16G C31G C37U U38G G40C,0.01
18,G5U G7A U38C,0.8
19,G5U G7A U38A,0.07
20,G5U G21U C45U,0.03
21,A6C G35A G40A,0.03

row,Variant,self-cleavage
1,A6C U32C U38C G40C,0.19
2,A6G A12G G21A C37G,0.02
3,G5U U28C U38A,0.08
4,A6G A12C G19C G35U,0.02
5,G5U G17U C18A G19A G33U G35C,0.04
6,G5U G7C A25C G35U C42G,0.03
7,G5U U38G G44U,0.02
8,G5U C18U C23A,0.04
9,A6G A12U C37U U38G,0
10,A6G A16U U32G A41G U43C,0.02
11,A6C G22A C42A C46U,0.03
12,G5U G21U G33C A41G,0.09
13,A6C G19A G21A,1.05
14,G5U C31G U34G G35A G44U,0.02
15,G5U G30C G40A C46A,0.02
16,G5U G7A C10G G21U,0.01
17,G5U G7C G27A C42A,0.14
18,A6G A14C C18A G27C,0.04
19,G5U G7A C8U U20C,0.47
20,G5U G29C C37U,0.01
21,A6C A12C C13U,0.05

row,Variant,self-cleavage
1,A6C C13G G22A U28C,0.06
2,A6C C15G U20C A24U G27U,0.01
3,G5U G7U A11C C15U A16G U34C C42G,0.01
4,A6G A11C G21U,0.05
5,A6C C15A U38G C42A U43C C46A,0.02
6,G5U C31A G40A,0.06
7,A6C C10A G44U C45U,0
8,G5U G17C U20C,0.05
9,A6G A24C A41U,0.06
10,A6C C10A G19A C23A A24C G33U G35U,0.02
11,G5U U20A G33C,0.04
12,G5U G17A A41C,0.07
13,A6G C8U C13U U20G G21U A26C,0.02
14,A6G A26G C37U C46G,0
15,G5U G7U A24C G30C G33C U34A,0.03
16,A6C A24G U38A C42A,0.03
17,G5U G36C U43C,0.02
18,G5U U9G A24G,0.06
19,G5U C18U G21U A25U,0.06
20,A6C C10A C13A G36A A41U,0.01
21,A6C G22U U38G G40U,0.04

# From the RNAGym collection of RNA variant scans (doi:10.7554/elife.90254)
